The values that follow come from the supplement of paper PMC12230231.

± gives the standard deviation of the averaged measurements. Restriction of a single-cycle SIVsab GFP reporter by TRIM5α v1-loop variants in CRFK cells. Human variants: read share among cells still uninfected after two challenges over input, higher = gained restriction. Rhesus variants: share among infected cells over input, higher = lost restriction. Reporter dose not given per row. No active / inactive call per row; the paper calls a change when both replicates lie above its controls (mean + 2 SD of stop or wild-type variants, or the top frameshift score). Residues outside the varied loop are taken from Swiss-Prot. The paper reads the human single-substitution scores as noise; they and the rhesus combinations repeat poorly (rank correlation 0.3 to 0.4), indel scores repeat only for the top variants, rhesus substitutions well (0.9).

The test system of the series is SIVsab (simian immunodeficiency virus of sabaeus monkeys), single-cycle GFP reporter, in CRFK cells. Kind of series: enrichment among uninfected cells over input (fold); higher = stronger restriction. The settings on record: library: human / rhesus combinations. How it is done: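 Pools of CRFK cells expressing variants of the TRIM5α v1 loop were challenged with the single-cycle reporter, sorted by GFP and sequenced; mean of two replicates.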
As to “MASGILVNVKEEVTCPICLELLTQPLSLDCGHSFCQACLTANHKKSMLDKGESSCPVCRISYQPENIRPNRHVANIVEKLREVKLSPEGQKVDHCARHGEKLLLFCQEDGKVICWLCERSQEHRGHHTFLTEEVAREYQVKLQAALEMLRQKQQEAEELEADIREEKASWKTQIQYDKTNVLADFEQLRDILDWEESNELQNLEKEEEDILKSLTNSETEMVQQTQSLRELISDLEHRLQGSVMELLQGVDGVIKRTENVTLKKPETFPKNQRRVFRAPDLKGMLEVFRELTDVRRYWVDVTVAPNNISCAVISEDKRQVSSPKPQIIYGAPGTLFPTFVNFNYCTGILGSQSITSGKHYWEVDVSKKTAWILGVCAGFQPDAMCNIEKNENYQPKYGYWVIGLEEGVKCSAFQDSSFHTPSVPFIVPLSVIICPDRVGVFLDYEACTVSFFNITNHGFLIYKFSHCSFSQPVFPYLNPRKCGVPMTLCSPSS [human TRIM5α, 330-340 = GAPGTLFPTFV]”, the enrichment is 0.00245 ± 0.0014.

Regarding “MASGILVNVKEEVTCPICLELLTQPLSLDCGHSFCQACLTANHKKSMLDKGESSCPVCRISYQPENIRPNRHVANIVEKLREVKLSPEGQKVDHCARHGEKLLLFCQEDGKVICWLCERSQEHRGHHTFLTEEVAREYQVKLQAALEMLRQKQQEAEELEADIREEKASWKTQIQYDKTNVLADFEQLRDILDWEESNELQNLEKEEEDILKSLTNSETEMVQQTQSLRELISDLEHRLQGSVMELLQGVDGVIKRTENVTLKKPETFPKNQRRVFRAPDLKGMLEVFRELTDVRRYWVDVTVAPNNISCAVISEDKRQVSSPKPQIIYGAPGTLFQSFTNFNYCTGILGSQSITSGKHYWEVDVSKKTAWILGVCAGFQPDAMCNIEKNENYQPKYGYWVIGLEEGVKCSAFQDSSFHTPSVPFIVPLSVIICPDRVGVFLDYEACTVSFFNITNHGFLIYKFSHCSFSQPVFPYLNPRKCGVPMTLCSPSS [human TRIM5α, 330-340 = GAPGTLFQSFT]”, the enrichment was 0.00118 ± 0.00028.

As to “MASGILVNVKEEVTCPICLELLTQPLSLDCGHSFCQACLTANHKKSMLDKGESSCPVCRISYQPENIRPNRHVANIVEKLREVKLSPEGQKVDHCARHGEKLLLFCQEDGKVICWLCERSQEHRGHHTFLTEEVAREYQVKLQAALEMLRQKQQEAEELEADIREEKASWKTQIQYDKTNVLADFEQLRDILDWEESNELQNLEKEEEDILKSLTNSETEMVQQTQSLRELISDLEHRLQGSVMELLQGVDGVIKRTENVTLKKPETFPKNQRRVFRAPDLKGMLEVFRELTDVRRYWVDVTVAPNNISCAVISEDKRQVSSPKPQIIYGAPGTLFQSFVNFNYCTGILGSQSITSGKHYWEVDVSKKTAWILGVCAGFQPDAMCNIEKNENYQPKYGYWVIGLEEGVKCSAFQDSSFHTPSVPFIVPLSVIICPDRVGVFLDYEACTVSFFNITNHGFLIYKFSHCSFSQPVFPYLNPRKCGVPMTLCSPSS [human TRIM5α, 330-340 = GAPGTLFQSFV]”, the enrichment was 0.00299 ± 0.0004.

“MASGILVNVKEEVTCPICLELLTQPLSLDCGHSFCQACLTANHKKSMLDKGESSCPVCRISYQPENIRPNRHVANIVEKLREVKLSPEGQKVDHCARHGEKLLLFCQEDGKVICWLCERSQEHRGHHTFLTEEVAREYQVKLQAALEMLRQKQQEAEELEADIREEKASWKTQIQYDKTNVLADFEQLRDILDWEESNELQNLEKEEEDILKSLTNSETEMVQQTQSLRELISDLEHRLQGSVMELLQGVDGVIKRTENVTLKKPETFPKNQRRVFRAPDLKGMLEVFRELTDVRRYWVDVTVAPNNISCAVISEDKRQVSSPKPQIIYGAPGTLFQTFTNFNYCTGILGSQSITSGKHYWEVDVSKKTAWILGVCAGFQPDAMCNIEKNENYQPKYGYWVIGLEEGVKCSAFQDSSFHTPSVPFIVPLSVIICPDRVGVFLDYEACTVSFFNITNHGFLIYKFSHCSFSQPVFPYLNPRKCGVPMTLCSPSS [human TRIM5α, 330-340 = GAPGTLFQTFT]”: the enrichment turned out to be 0.00384 ± 0.0024.

Take “MASGILVNVKEEVTCPICLELLTQPLSLDCGHSFCQACLTANHKKSMLDKGESSCPVCRISYQPENIRPNRHVANIVEKLREVKLSPEGQKVDHCARHGEKLLLFCQEDGKVICWLCERSQEHRGHHTFLTEEVAREYQVKLQAALEMLRQKQQEAEELEADIREEKASWKTQIQYDKTNVLADFEQLRDILDWEESNELQNLEKEEEDILKSLTNSETEMVQQTQSLRELISDLEHRLQGSVMELLQGVDGVIKRTENVTLKKPETFPKNQRRVFRAPDLKGMLEVFRELTDVRRYWVDVTVAPNNISCAVISEDKRQVSSPKPQIIYGAPGTLFTFPSFTNFNYCTGILGSQSITSGKHYWEVDVSKKTAWILGVCAGFQPDAMCNIEKNENYQPKYGYWVIGLEEGVKCSAFQDSSFHTPSVPFIVPLSVIICPDRVGVFLDYEACTVSFFNITNHGFLIYKFSHCSFSQPVFPYLNPRKCGVPMTLCSPSS [human TRIM5α, 330-340 = GAPGTLFTFPSFT]”: the enrichment turned out to be 33.7 ± 12.

Take “MASGILVNVKEEVTCPICLELLTQPLSLDCGHSFCQACLTANHKKSMLDKGESSCPVCRISYQPENIRPNRHVANIVEKLREVKLSPEGQKVDHCARHGEKLLLFCQEDGKVICWLCERSQEHRGHHTFLTEEVAREYQVKLQAALEMLRQKQQEAEELEADIREEKASWKTQIQYDKTNVLADFEQLRDILDWEESNELQNLEKEEEDILKSLTNSETEMVQQTQSLRELISDLEHRLQGSVMELLQGVDGVIKRTENVTLKKPETFPKNQRRVFRAPDLKGMLEVFRELTDVRRYWVDVTVAPNNISCAVISEDKRQVSSPKPQIIYGAPGTLFTFPSFVNFNYCTGILGSQSITSGKHYWEVDVSKKTAWILGVCAGFQPDAMCNIEKNENYQPKYGYWVIGLEEGVKCSAFQDSSFHTPSVPFIVPLSVIICPDRVGVFLDYEACTVSFFNITNHGFLIYKFSHCSFSQPVFPYLNPRKCGVPMTLCSPSS [human TRIM5α, 330-340 = GAPGTLFTFPSFV]”: the enrichment is 13.8 ± 1.8.

For “MASGILVNVKEEVTCPICLELLTQPLSLDCGHSFCQACLTANHKKSMLDKGESSCPVCRISYQPENIRPNRHVANIVEKLREVKLSPEGQKVDHCARHGEKLLLFCQEDGKVICWLCERSQEHRGHHTFLTEEVAREYQVKLQAALEMLRQKQQEAEELEADIREEKASWKTQIQYDKTNVLADFEQLRDILDWEESNELQNLEKEEEDILKSLTNSETEMVQQTQSLRELISDLEHRLQGSVMELLQGVDGVIKRTENVTLKKPETFPKNQRRVFRAPDLKGMLEVFRELTDVRRYWVDVTVAPNNISCAVISEDKRQVSSPKPQIIYGAPGTLFTFPSLTNFNYCTGILGSQSITSGKHYWEVDVSKKTAWILGVCAGFQPDAMCNIEKNENYQPKYGYWVIGLEEGVKCSAFQDSSFHTPSVPFIVPLSVIICPDRVGVFLDYEACTVSFFNITNHGFLIYKFSHCSFSQPVFPYLNPRKCGVPMTLCSPSS [human TRIM5α, 330-340 = GAPGTLFTFPSLT]”, the enrichment was determined as 16.3 ± 3.

For the sequence “MASGILVNVKEEVTCPICLELLTQPLSLDCGHSFCQACLTANHKKSMLDKGESSCPVCRISYQPENIRPNRHVANIVEKLREVKLSPEGQKVDHCARHGEKLLLFCQEDGKVICWLCERSQEHRGHHTFLTEEVAREYQVKLQAALEMLRQKQQEAEELEADIREEKASWKTQIQYDKTNVLADFEQLRDILDWEESNELQNLEKEEEDILKSLTNSETEMVQQTQSLRELISDLEHRLQGSVMELLQGVDGVIKRTENVTLKKPETFPKNQRRVFRAPDLKGMLEVFRELTDVRRYWVDVTVAPNNISCAVISEDKRQVSSPKPQIIYGAPGTLFTFPSLVNFNYCTGILGSQSITSGKHYWEVDVSKKTAWILGVCAGFQPDAMCNIEKNENYQPKYGYWVIGLEEGVKCSAFQDSSFHTPSVPFIVPLSVIICPDRVGVFLDYEACTVSFFNITNHGFLIYKFSHCSFSQPVFPYLNPRKCGVPMTLCSPSS [human TRIM5α, 330-340 = GAPGTLFTFPSLV]”, the enrichment amounted to 9.96 ± 0.21.

In the case of “MASGILVNVKEEVTCPICLELLTQPLSLDCGHSFCQACLTANHKKSMLDKGESSCPVCRISYQPENIRPNRHVANIVEKLREVKLSPEGQKVDHCARHGEKLLLFCQEDGKVICWLCERSQEHRGHHTFLTEEVAREYQVKLQAALEMLRQKQQEAEELEADIREEKASWKTQIQYDKTNVLADFEQLRDILDWEESNELQNLEKEEEDILKSLTNSETEMVQQTQSLRELISDLEHRLQGSVMELLQGVDGVIKRTENVTLKKPETFPKNQRRVFRAPDLKGMLEVFRELTDVRRYWVDVTVAPNNISCAVISEDKRQVSSPKPQIIYGAPGTLFTFPTFTNFNYCTGILGSQSITSGKHYWEVDVSKKTAWILGVCAGFQPDAMCNIEKNENYQPKYGYWVIGLEEGVKCSAFQDSSFHTPSVPFIVPLSVIICPDRVGVFLDYEACTVSFFNITNHGFLIYKFSHCSFSQPVFPYLNPRKCGVPMTLCSPSS [human TRIM5α, 330-340 = GAPGTLFTFPTFT]”, the enrichment stood at 18.5 ± 5.4.

As for “MASGILVNVKEEVTCPICLELLTQPLSLDCGHSFCQACLTANHKKSMLDKGESSCPVCRISYQPENIRPNRHVANIVEKLREVKLSPEGQKVDHCARHGEKLLLFCQEDGKVICWLCERSQEHRGHHTFLTEEVAREYQVKLQAALEMLRQKQQEAEELEADIREEKASWKTQIQYDKTNVLADFEQLRDILDWEESNELQNLEKEEEDILKSLTNSETEMVQQTQSLRELISDLEHRLQGSVMELLQGVDGVIKRTENVTLKKPETFPKNQRRVFRAPDLKGMLEVFRELTDVRRYWVDVTVAPNNISCAVISEDKRQVSSPKPQIIYGAPGTLFTFPTFVNFNYCTGILGSQSITSGKHYWEVDVSKKTAWILGVCAGFQPDAMCNIEKNENYQPKYGYWVIGLEEGVKCSAFQDSSFHTPSVPFIVPLSVIICPDRVGVFLDYEACTVSFFNITNHGFLIYKFSHCSFSQPVFPYLNPRKCGVPMTLCSPSS [human TRIM5α, 330-340 = GAPGTLFTFPTFV]”, the enrichment stood at 1.95 ± 0.23.

In the case of “MASGILVNVKEEVTCPICLELLTQPLSLDCGHSFCQACLTANHKKSMLDKGESSCPVCRISYQPENIRPNRHVANIVEKLREVKLSPEGQKVDHCARHGEKLLLFCQEDGKVICWLCERSQEHRGHHTFLTEEVAREYQVKLQAALEMLRQKQQEAEELEADIREEKASWKTQIQYDKTNVLADFEQLRDILDWEESNELQNLEKEEEDILKSLTNSETEMVQQTQSLRELISDLEHRLQGSVMELLQGVDGVIKRTENVTLKKPETFPKNQRRVFRAPDLKGMLEVFRELTDVRRYWVDVTVAPNNISCAVISEDKRQVSSPKPQIIYGAPGTLFTFPTLTNFNYCTGILGSQSITSGKHYWEVDVSKKTAWILGVCAGFQPDAMCNIEKNENYQPKYGYWVIGLEEGVKCSAFQDSSFHTPSVPFIVPLSVIICPDRVGVFLDYEACTVSFFNITNHGFLIYKFSHCSFSQPVFPYLNPRKCGVPMTLCSPSS [human TRIM5α, 330-340 = GAPGTLFTFPTLT]”, the enrichment was 2.17 ± 0.93.

On to “MASGILVNVKEEVTCPICLELLTQPLSLDCGHSFCQACLTANHKKSMLDKGESSCPVCRISYQPENIRPNRHVANIVEKLREVKLSPEGQKVDHCARHGEKLLLFCQEDGKVICWLCERSQEHRGHHTFLTEEVAREYQVKLQAALEMLRQKQQEAEELEADIREEKASWKTQIQYDKTNVLADFEQLRDILDWEESNELQNLEKEEEDILKSLTNSETEMVQQTQSLRELISDLEHRLQGSVMELLQGVDGVIKRTENVTLKKPETFPKNQRRVFRAPDLKGMLEVFRELTDVRRYWVDVTVAPNNISCAVISEDKRQVSSPKPQIIYGAPGTLFTFPTLVNFNYCTGILGSQSITSGKHYWEVDVSKKTAWILGVCAGFQPDAMCNIEKNENYQPKYGYWVIGLEEGVKCSAFQDSSFHTPSVPFIVPLSVIICPDRVGVFLDYEACTVSFFNITNHGFLIYKFSHCSFSQPVFPYLNPRKCGVPMTLCSPSS [human TRIM5α, 330-340 = GAPGTLFTFPTLV]”, for which the enrichment stood at 0.275 ± 0.13.
